Assay results from US11999716B2, “WDR5 inhibitors and modulators” (priority 2018, dated 2024).

Target: WDR5 (Homo sapiens, UniProt P61964)
Assay: biochemical
Type: binding
Conditions: WDR5-His tag (Δ23, residues 24-334) 2 nM; 10mer-Thr-FAM probe 150 nM; Tb-anti-HIS 1 nM; 60 min, room temperature; read-out: Ki for Inhibition of WDR5 by TR-FRET assay

Ki	SMILES
0.098 nM	CCc1ccnc([C@H](C)N2CCc3c(cc(Cn4ccnc4)cc3-c3cn(C)nc3C(F)(F)F)C2=O)c1 [Example 191, (S)-7-((1H-Imidazol-1-yl)methyl)-2-(1-(4-ethylpyridin-2-yl)ethyl)-5-(1-methyl-3-(trifluoromethyl)-1H-pyrazol-4-yl)-3,4-dihydroisoquinolin-1(2H)-one]
0.22 nM	Cc1nccn1Cc1cc2c(c(-c3cn(C)nc3C(F)(F)F)c1)CCN(Cc1cn(C)c3ccccc13)C2=O [Example 189, 7-((2-Methyl-1H-imidazol-1-yl)methyl)-2-((1-methyl-1H-indol-3-yl)methyl)-5-(1-methyl-3-(trifluoromethyl)-1H-pyrazol-4-yl)-3,4-dihydroisoquinolin-1(2H)-one]
< 0.05 nM	Cc1ccnc([C@H](C2CC2)N2CCc3c(cc(Cn4ccnc4)cc3-c3ccc(F)cc3C)C2=O)c1 [Example 184, (S)-7-((1H-Imidazol-1-yl)methyl)-2-(cyclopropyl(4-methylpyridin-2-yl)methyl)-5-(4-fluoro-2-methylphenyl)-3,4-dihydroisoquinolin-1(2H)-one]
0.27 nM	COc1ccnc([C@H](C)N2CCc3c(cc(Cn4ccnc4C)cc3-c3cnccc3C)C2=O)c1 [Example 196, (S)-2-(1-(4-Methoxypyridin-2-yl)ethyl)-7-((2-methyl-1H-imidazol-1-yl)methyl)-5-(4-methylpyridin-3-yl)-3,4-dihydroisoquinolin-1(2H)-one]
< 0.05 nM	COc1ccnc([C@H](C2CC2)N2CCc3c(cc(Cn4ccnc4C)cc3-c3cn(C)nc3C)C2=O)c1 [Example 203, (S)-2-(Cyclopropyl(4-methoxypyridin-2-yl)methyl)-5-(1,3-dimethyl-1H-pyrazol-4-yl)-7-((2-methyl-1H-imidazol-1-yl)methyl)-3,4-dihydroisoquinolin-1(2H)-one]
0.3 nM	Cc1nccn1Cc1cc2c(c(-c3cn(C)nc3C(F)(F)F)c1)CCN(Cc1cn(C(C)C)c3ccccc13)C2=O [Example 193, 2-((1-Isopropyl-1H-indol-3-yl)methyl)-7-((2-methyl-1H-imidazol-1-yl)methyl)-5-(1-methyl-3-(trifluoromethyl)-1H-pyrazol-4-yl)-3,4-dihydroisoquinolin-1(2H)-one]
0.056 nM	CC[C@H](c1cncc(C)c1)N1CCc2c(cc(Cn3ccnc3C)cc2-c2cn(C)nc2C(F)(F)F)C1=O [Example 198, (R)-7-((2-Methyl-1H-imidazol-1-yl)methyl)-5-(1-methyl-3-(trifluoromethyl)-1H-pyrazol-4-yl)-2-(1-(5-methylpyridin-3-yl)propyl)-3,4-dihydroisoquinolin-1(2H)-one]
< 0.05 nM	Cc1cncc([C@H](C)N2CCc3c(cc(Cn4ccnc4C)cc3-c3cn(C)nc3C(F)(F)F)C2=O)c1 [Example 200, (S)-7-((2-Methyl-1H-imidazol-1-yl)methyl)-5-(1-methyl-3-(trifluoromethyl)-1H-pyrazol-4-yl)-2-(1-(5-methylpyridin-3-yl)ethyl)-3,4-dihydroisoquinolin-1(2H)-one]
0.14 nM	Cc1cc(CN2CCc3c(cc(Cn4ccnc4C)cc3-c3cn(C)nc3C(F)(F)F)C2=O)on1 [Example 190, 7-((2-Methyl-1H-imidazol-1-yl)methyl)-5-(1-methyl-3-(trifluoromethyl)-1H-pyrazol-4-yl)-2-((3-methylisoxazol-5-yl)methyl)-3,4-dihydroisoquinolin-1(2H)-one]
0.75 nM	Cc1cccnc1CN1CCc2c(cc(Cn3ccnc3C)cc2-c2cn(C)nc2C(F)(F)F)C1=O [Example 181, 7-((2-Methyl-1H-imidazol-1-yl)methyl)-5-(1-methyl-3-(trifluoromethyl)-1H-pyrazol-4-yl)-2-((3-methylpyridin-2-yl)methyl)-3,4-dihydroisoquinolin-1(2H)-one]
0.15 nM	Cc1cnc(CN2CCc3c(cc(Cn4ccnc4C)cc3-c3cn(C)nc3C(F)(F)F)C2=O)s1 [Example 195, 7-((2-Methyl-1H-imidazol-1-yl)methyl)-5-(1-methyl-3-(trifluoromethyl)-1H-pyrazol-4-yl)-2-((5-methylthiazol-2-yl)methyl)-3,4-dihydroisoquinolin-1(2H)-one]
0.075 nM	Cc1cncc([C@@H](C)N2CCc3c(cc(Cn4ccnc4C)cc3-c3cn(C)nc3C(F)(F)F)C2=O)c1 [Example 197, (R)-7-((2-Methyl-1H-imidazol-1-yl)methyl)-5-(1-methyl-3-(trifluoromethyl)-1H-pyrazol-4-yl)-2-(1-(5-methylpyridin-3-yl)ethyl)-3,4-dihydroisoquinolin-1(2H)-one]
0.14 nM	CCn1cc(CN2CCc3c(cc(Cn4ccnc4C)cc3-c3cn(C)nc3C(F)(F)F)C2=O)c2ccccc21 [Example 187, 2-((1-Ethyl-1H-indol-3-yl)methyl)-7-((2-methyl-1H-imidazol-1-yl)methyl)-5-(1-methyl-3-(trifluoromethyl)-1H-pyrazol-4-yl)-3,4-dihydroisoquinolin-1(2H)-one]
0.18 nM	Cc1nnc(CN2CCc3c(cc(Cn4ccnc4C)cc3-c3cn(C)nc3C(F)(F)F)C2=O)o1 [Example 188, 2-((5-Methyl-1,3,4-oxadiazol-2-yl)methyl)-7-((2-methyl-1H-imidazol-1-yl)methyl)-5-(1-methyl-3-(trifluoromethyl)-1H-pyrazol-4-yl)-3,4-dihydroisoquinolin-1(2H)-one]
0.14 nM	Cc1cnc(CN2CCc3c(cc(Cn4ccnc4C)cc3-c3cn(C)nc3C(F)(F)F)C2=O)o1 [Example 194, 7-((2-Methyl-1H-imidazol-1-yl)methyl)-5-(1-methyl-3-(trifluoromethyl)-1H-pyrazol-4-yl)-2-((5-methyloxazol-2-yl)methyl)-3,4-dihydroisoquinolin-1(2H)-one]
< 0.05 nM	CC[C@@H](c1cncc(C)c1)N1CCc2c(cc(Cn3ccnc3C)cc2-c2cn(C)nc2C(F)(F)F)C1=O [Example 199, (S)-7-((2-Methyl-1H-imidazol-1-yl)methyl)-5-(1-methyl-3-(trifluoromethyl)-1H-pyrazol-4-yl)-2-(1-(5-methylpyridin-3-yl)propyl)-3,4-dihydroisoquinolin-1(2H)-one]
0.052 nM	COc1ccnc([C@H](C)N2CCc3c(cc(Cn4ccnc4C)cc3-c3cccnc3C)C2=O)c1 [Example 202, (S)-2-(1-(4-Methoxypyridin-2-yl)ethyl)-7-((2-methyl-1H-imidazol-1-yl)methyl)-5-(2-methylpyridin-3-yl)-3,4-dihydroisoquinolin-1(2H)-one]
0.096 nM	COc1ccnc([C@H](C)N2CCc3c(cc(Cn4ccnc4C)cc3-c3cccnc3C(F)(F)F)C2=O)c1 [Example 192, (S)-2-(1-(4-Methoxypyridin-2-yl)ethyl)-7-((2-methyl-1H-imidazol-1-yl)methyl)-5-(2-(trifluoromethyl)pyridin-3-yl)-3,4-dihydroisoquinolin-1(2H)-one]
